Laboratory results published in paper PMC12040169 (PLOS Biology, 2025).
Some of the results follow.

System: T1, C. trachomatis L2/434/Bu expressing GFP (CTL2-GFP)
T1 construct: L2/434/Bu GFP intracellular growth in HeLa cells
Design: species or system HeLa; C. trachomatis total inclusion area by high-content imaging, normalised to DMSO
Conditions: total inclusion area; 28.5 h, 10 µM; inhibitor
Outline: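 After bulk GFP and resorufin fluorescence reads, cells were fixed, stained with Hoechst and imaged by high-content microscopy. Inclusion area and number (GFP) stood in for chlamydial growth, nuclei count (Hoechst) for host cell viability. MICs were derived as for the bulk readout.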

Row | SMILES | % of control remaining
1 | Cc1nnc(SCc2cc(=O)[nH]c(Nc3nc(C)c4cccc(C)c4n3)n2)s1 [CBK266740] | 89.8828
2 | CCN(C(=O)Cc1cc(OC)ccc1Br)c1cccnc1 [CBK305318] | 30.8303
3 | CCC1CCCCN1C(=O)c1ccccc1OC (stereo not drawn) [CBK083205] | 90.7326
4 | O=C(c1cc(F)c(F)cc1F)N1CCC2(CCCN(Cc3ccc(Cl)c(Cl)c3)C2)C1 (stereo not drawn) [CBK131990] | 84.8705
5 | CCC(SC1=NCCS1)C(=O)Nc1ccc(NC(C)=O)cc1 (stereo not drawn) [CBK266199] | 132.948
6 | COc1ccc(C(NC(=O)c2cn3ccsc3n2)[C@H]2C[C@H](O)C2)cn1 (stereo partly drawn) [CBK306744] | 60.6146
7 | Cc1cccc(NC(=O)CSc2ncnc3sc4c(c23)CCC(C)C4)c1 (stereo not drawn) [CBK265738] | 81.6477
8 | CN1CCC(=NNC(=O)CN(c2cccc(Cl)c2)S(=O)(=O)c2ccccc2)CC1 [CBK262489] | 106.211
9 | O=C(CSc1ccc2nnc(-c3ccc(F)cc3)n2n1)N1CCOCC1 [CBK287521] | 117.577
10 | Cc1nn(-c2ccccc2)c(O)c1Cc1c(Cl)cccc1Cl [CBK067760] | 79.5205
11 | O=C(O)COCC(=O)N1CCN(c2ccccc2Cl)CC1 [CBK268155] | 109.56
12 | C=C[C@H]1C[N@@]2CC[C@H]1C[C@@H]2CNS(=O)(=O)c1cccc2cccnc12 [CBK288751] | 104.96
13 | Cc1ccccc1C(=O)Nc1ccc(F)c(F)c1 [CBK058249] | 112.041
14 | CSc1nccc(N2CCC(NCCCn3ccnn3)CC2)n1 [CBK307076] | 64.0293
15 | Cc1ccc2c(c1)cc(C(=O)N1CCOC(C(=O)N3CCc4ccccc4C3)C1)n2C (stereo not drawn) [CBK286035] | 116.742
16 | CC(C)n1c(NCc2ccccc2)nc2c1c(=O)n(C)c(=O)n2C [CBK140094] | 71.6036
17 | CN1CCN(C(=O)c2ccsc2NS(=O)(=O)c2ccc(Oc3ccccc3)cc2)CC1 [CBK042277] | 113.267
18 | O=C(NCCO)C1(Cc2ccc(-c3ccccc3)cc2)CCNC1 (stereo not drawn) [CBK283043] | 65.2151
19 | O=C(CCn1cnc2ccccc2c1=O)Nc1ccc(S(=O)(=O)N2CCOCC2)cc1 [CBK267645] | 109.251
20 | COc1ccc(CNC2CCCc3ccccc32)c(OC)c1C (stereo not drawn) [CBK025778G] | 94.6762
21 | c1ccc(-c2ccc(-c3cc(N4CCN(CCN5CCCC5)CC4)ncn3)cc2)cc1 [CBK091165] | 178.95

Row | SMILES | % of control remaining
22 | Cc1cc(CNC(=O)Nc2ccc(F)c(-n3nnnc3C)c2)n(C)n1 [CBK305525] | 44.6303
23 | CCCNC(=O)C(C)NC(=O)C1=Cc2ccccc2OC1 (stereo not drawn) [CBK297937] | 82.7734
24 | CN1CCC(=NNC(=O)CN(c2cccc([N+](=O)[O-])c2)S(=O)(=O)c2ccccc2)CC1 [CBK262727] | 104.115
25 | CC(c1ncc(Br)cn1)N1CCN(Cc2noc(C(C)(C)C)n2)CC1 (stereo not drawn) [CBK306168] | 41.2178
26 | CCc1cc(C(=O)N2CCC(Oc3ccccc3F)CC2)n(C)n1 [CBK282172] | 67.4526
27 | CC(C)c1ccc(/C=C/C(=O)NCc2ccc3occc3c2)cc1 [CBK149620] | 104.866
28 | Nc1ncnc2c1C(c1ccc(Cl)cc1)c1c(ccc3ccccc13)O2 (stereo not drawn) [CBK263938] | 82.9041
29 | CCc1nn(CC(=O)N2CCCC(C)C2)c(=O)c2cc3occc3n12 (stereo not drawn) [CBK283657] | 99.7997
30 | O=C(CSc1nnc(-c2ccncc2)n1-c1ccccc1)N/N=C/c1c[nH]c2ccccc12 [CBK262776] | 104.736
31 | Cc1nc(C(F)(F)F)ccc1NC(=O)CSCC(=O)O [CBK056975] | 77.1521
32 | Cc1cc(=O)oc(-c2ccccc2)c1C#N [CBK004842] | 80.8943
33 | CN(C)S(=O)(=O)c1c(Cl)cccc1Cl [CBK091643] | 65.0377
34 | Cc1ccc(OCC(=O)NC(=S)Nc2cc(C(=O)O)ccc2C)cc1C [CBK264955] | 102.194
35 | COc1ccc(-c2cccc(Nc3cc(OC)c(OC)c(OC)c3)n2)cc1OC [CBK037634] | 40.9415
36 | Cc1ccc(OCCSc2nc3ccccc3n2CC(=O)O)c(C(C)C)c1 [CBK300483] | 79.1471
37 | Cc1n[nH]c(=O)c2noc(C)c12 [CBK000857] | 97.7449
38 | CCN(CC)C(=O)CCn1c(-c2cccnc2C)cc2cccnc21 [CBK282147] | 90.8549
39 | Cc1nc(C)n(CC(=O)N2CCc3sccc3C2c2ccco2)n1 (stereo not drawn) [CBK281649] | 97.2728
40 | Clc1ccc(Nc2nnc(-c3[nH]ncc3NCc3ccncc3)o2)cc1 [CBK288588] | 109.155
41 | CN(C)CCN(Cc1ccncc1)Cc1cc(F)cc(F)c1 [CBK283096] | 105.883
42 | Cc1ccc(-c2cncc(N(C)CCN(C)C)n2)cc1C [CBK065990] | 122.543

Row | SMILES | % of control remaining
43 | COCCn1c(SCc2cn3c(C)cc(C)nc3n2)nc(C)c1C [CBK306489] | 41.2603
44 | c1ccc(CCN2CCC(Cc3ccccc3)CC2)cc1 [CBK126434] | 98.6256
45 | CCC(C)(C)c1ccc(S(=O)(=O)Nc2cc(Cl)ccc2O)cc1 [CBK045243] | 92.7285
46 | O=C(CCn1c2ccccc2c2ccccc21)N1CCn2cnnc2C1 [CBK283645] | 95.983
47 | Cn1c(SCc2nnc(-c3ccccc3)o2)nnc1C(O)c1ccccc1 (stereo not drawn) [CBK269640] | 104.834
48 | O=C(Nc1ccc2oc(-c3cccnc3)nc2c1)c1ccc(-c2ccccc2)cc1 [CBK264035] | 97.8939
49 | O=C(CCn1c(-c2ccccn2)cc2cccnc21)NC1CCCC1 [CBK284965] | 98.1755
50 | CCn1cc(C(=O)NN)c(=O)c2cc(F)c(N3CCCC3)cc21 [CBK307146] | 57.7844
51 | FC(F)(F)Oc1ccc(CNc2nccnc2-c2cccs2)cc1 [CBK036806] | 103.133
52 | Cc1nc2ccc(C(=O)N3CCN(c4ccccc4)CC3)cn2c1N(C)C(=O)c1cccs1 [CBK146544] | 98.9539
53 | OC(CN(c1ccccc1)c1ccccc1)Cn1cnc2ccccc21 (stereo not drawn) [CBK261417] | 97.3473
54 | S=C(NCC1CCN(C(=S)NC2CCCCC2)CC1)NC1CCCCC1 [CBK004987] | 82.6445
55 | O=C(c1nc2ccccc2[nH]1)N1CCC(F)CC1 [CBK200278] | 95.6004
56 | CCCCN(C)CCNC(=O)c1ccc2c(c1)NC(=O)C(N1CCCCC1)S2 (stereo not drawn) [CBK071799] | 75.7069
57 | Cc1ccc(NC(=O)C(=O)NCCCn2ccnc2)cc1Cl [CBK264238] | 100.801
58 | COc1cc(CN2CCN(Cc3ccco3)CC2)cc(OC)c1OC [CBK074520G] | 98.3776
59 | O=C(c1ccc(-c2cnc3[nH]c(=O)n(CCc4cccnc4)c3n2)cc1)N1CCOCC1 [CBK064334] | 113.296
60 | O=C(O)c1ccc(N2C(=O)C(O)=C(C(=O)c3ccccc3)C2c2cccc([N+](=O)[O-])c2)cc1 (stereo not drawn) [CBK263760] | 100.742
61 | O=C(NCCO)Nc1ccc2nccnc2c1 [CBK027577] | 4.122
62 | Cc1c(C(=O)N2CCC(C(=O)c3cccnc3)CC2)oc2ccccc12 [CBK283954] | 100.905
63 | NCCN(Cc1cccc(Cl)c1)C(=O)NC(c1ccccc1)c1ccccc1 [CBK046203C] | 71.2747

Row | SMILES | % of control remaining
64 | CCOC(=O)CN(Cc1ccccc1)Cc1ccc(OC)cc1 [CBK126460] | 95.8167
65 | CS(=O)(=O)Nc1cc2ccccc2c(-c2ccc(OC(F)(F)F)cc2)n1 [CBK085757] | 90.4236
66 | COc1cc(/C=C/C(=O)O)cc(S(=O)(=O)N2CCOCC2)c1OC [CBK264078] | 86.6275
67 | Cc1[nH]c2ccc(C(=O)O)cc2c1CC(=O)O [CBK267080] | 113.801
68 | Brc1csc(CN2CCN3CCCC3C2C2CCCCC2)c1 (stereo not drawn) [CBK026298] | 15.1958
69 | CCCC(=O)N[C@@H](Cn1c(=O)oc2ccccc21)C(C)C [CBK284536] | 101.6
70 | COCC(=O)N1CCC(c2nc(C)n3c(C)csc23)CC1 [CBK285198] | 92.8101
71 | COc1ccc(C2=NN(CN3C(=O)C(=O)c4cc(Br)ccc43)C(c3cccc([N+](=O)[O-])c3)C2)cc1 (stereo not drawn) [CBK263490] | 81.5066
72 | CCOc1ccc(CCNC(=O)c2cnc(Nc3ccccc3OC)c3ccccc23)cc1OCC [CBK291185] | 84.6769
73 | CCOc1ccc2c(c1)N1C(=O)NC(C(F)(F)F)(C(F)(F)F)N=C1S2 [CBK025440] | 60.3581
74 | COC(=O)[C@@H]1Cc2ncn(C)c2CN1C(=O)c1ccc(C#N)cc1 [CBK288994] | 110.804
75 | CCNC(=O)c1cn(Cc2ccccc2)nn1 [CBK073904] | 89.0809
76 | CN(Cc1ccccc1)C(=O)c1c[nH]nc1C1CCCCN1Cc1ccccc1Cl (stereo not drawn) [CBK285936] | 81.8914
77 | Cc1noc(-c2cn(C)nc2C2CCCCN2CC2CC2)c1C (stereo not drawn) [CBK283408] | 100.521
78 | CC#CC1CCCC2N(c3ccccc3)CCN12 (stereo not drawn) [CBK028191] | 61.5474
79 | CCOc1ccc(-c2n[nH]c(=S)n2CCC(=O)N2CCCN(Cc3ccc(C#N)cc3)CC2)cc1 [CBK297893] | 68.4204
80 | COc1ccc(CN2CCN(C(=O)c3cccc(F)c3)CC2)cc1 [CBK304396] | 84.6839
81 | CCC(C(=O)NCC1CCCN(C(C)C)C1)n1cnc2ccccc21 (stereo not drawn) [CBK282706] | 112.052
